Test results: PMC4336329 (PLoS ONE, 2015)
Among all 310,000 compounds or so, about 14,000 (4.5%) showed an effect of 50% or more. The effect is printed as a negative number. Some of the results follow.

What follows are compounds tested against human ether-à-go-go-related gene (hERG) potassium channel (human, UniProt Q12809) (assay: primary screen, population patch clamp on CHO cells stably expressing hERG).
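Also: peak tail current of the secondary pulse compared with the same well before compound.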

Sequence of human ether-à-go-go-related gene (hERG) potassium channel (Q12809 whole entry, looked up): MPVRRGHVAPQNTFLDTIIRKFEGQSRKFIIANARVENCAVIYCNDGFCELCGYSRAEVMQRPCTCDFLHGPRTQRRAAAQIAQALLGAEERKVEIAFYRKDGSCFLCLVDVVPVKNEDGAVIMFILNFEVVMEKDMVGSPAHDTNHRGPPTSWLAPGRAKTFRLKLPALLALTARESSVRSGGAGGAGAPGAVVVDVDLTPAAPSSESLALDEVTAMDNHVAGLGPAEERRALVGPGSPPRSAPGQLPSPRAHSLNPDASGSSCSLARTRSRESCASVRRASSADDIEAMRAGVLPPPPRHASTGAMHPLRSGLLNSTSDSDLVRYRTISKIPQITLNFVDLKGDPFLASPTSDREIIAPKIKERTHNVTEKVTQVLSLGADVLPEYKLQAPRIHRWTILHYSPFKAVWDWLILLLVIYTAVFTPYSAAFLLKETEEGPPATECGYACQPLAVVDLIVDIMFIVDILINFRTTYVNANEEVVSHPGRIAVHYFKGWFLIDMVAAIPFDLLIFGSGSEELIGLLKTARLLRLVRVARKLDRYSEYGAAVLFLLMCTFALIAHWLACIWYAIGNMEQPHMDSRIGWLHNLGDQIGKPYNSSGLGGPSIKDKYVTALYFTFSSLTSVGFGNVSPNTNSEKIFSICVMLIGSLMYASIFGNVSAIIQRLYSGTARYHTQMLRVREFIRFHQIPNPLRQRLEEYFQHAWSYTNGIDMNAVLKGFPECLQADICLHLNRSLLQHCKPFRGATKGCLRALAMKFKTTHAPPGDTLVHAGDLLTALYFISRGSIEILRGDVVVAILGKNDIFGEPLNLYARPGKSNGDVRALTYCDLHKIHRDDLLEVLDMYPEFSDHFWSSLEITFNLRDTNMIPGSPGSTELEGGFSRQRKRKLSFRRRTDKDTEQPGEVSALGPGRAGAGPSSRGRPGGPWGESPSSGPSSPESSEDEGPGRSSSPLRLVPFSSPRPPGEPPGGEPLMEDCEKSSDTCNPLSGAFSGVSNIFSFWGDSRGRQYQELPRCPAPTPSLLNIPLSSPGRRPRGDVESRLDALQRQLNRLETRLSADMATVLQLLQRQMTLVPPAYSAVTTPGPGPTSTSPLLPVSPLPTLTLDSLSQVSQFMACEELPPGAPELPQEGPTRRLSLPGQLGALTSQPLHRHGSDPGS

SMILES	hERG current change (%, negative = inhibition) at 10uM [%]
COC(=O)N/N=C(\C)c1ccc(-n2ccnc2)cc1	7.15
CCOc1ccccc1N(CC(=O)NCc1ccc(OC)cc1)S(C)(=O)=O	-4.53
COc1cccc(CN(C(=O)c2ccco2)C(C(=O)NC2CCCC2)c2cccnc2)c1 (stereo not shown)	7.07
CC(C)CCN(CCC(C)C)C(=O)Cc1c(O)c2ccccc2[nH]c1=O	10.7
COc1ccccc1N1CCN(C(=O)c2ccc(CN3CCc4ccccc4C3)cc2)CC1	-13.4
CCC(=O)Nc1ccc(Cl)c(NC(=O)c2ccc([N+](=O)[O-])cc2)c1	-5.07
O=[N+]([O-])c1cc(Cl)ccc1NCCNc1ncc(C(F)(F)F)cc1Cl	8.15
O=C(COC(=O)C1CSC2(c3ccc(F)cc3)CCC(=O)N12)NC(=O)NC1CCCC1 (stereo not shown)	-4.24
CC(=O)N1CCN(c2ccc(NC(=O)c3ccco3)cc2Cl)CC1	0.303
CC(CNC(=O)CN1C(=O)c2cccnc2Oc2ccc(Cl)cc21)c1ccccc1 (stereo not shown)	2.01
O=C(O)C1CCCN(S(=O)(=O)Cc2ccccc2)C1 (stereo not shown)	-14.5
Cc1ccc(S(=O)(=O)NCCC(=O)Oc2ccc3ccc(=O)oc3c2)cc1	-0.545
C=CCNC(=O)CSc1nnc(-c2ccncc2)n1CCc1ccccc1	-4.4
COc1c(Cl)cc(Cl)cc1C(=O)Nc1ccccc1N1CCN(C(C)=O)CC1	3.01
O=C(CSc1ncn[nH]1)Nc1nc(-c2ccccc2)cs1	4.9
Cc1[nH]c2ccc(F)cc2c1CCN(Cc1ccncc1)C(=S)Nc1cccc(F)c1	-14
CCc1cccc(NC(=O)Cn2cccc2)c1	-3.79
CCOC(=O)c1ccc(NC(=O)Nc2ccc3c4c(cccc24)C(=O)N3CC)cc1	12.8
CN(C)CC/C=C1/c2ccccc2Sc2ccc(Cl)cc21.Cl	-56.8
CCOC(=O)C1CCCN(c2c(C(=O)c3ccccc3)cnc3ccccc23)C1 (stereo not shown)	-26.5
OCc1nc2ccccc2n1CCCOc1ccccc1	-21
CCOC(=O)N1CCC(NC(=O)CSCc2nc(-c3ccc(OC)c(OC)c3)oc2C)CC1	-2.5

SMILES	hERG current change (%, negative = inhibition) at 10uM [%]
NC(=O)CSCc1cccc(Br)c1	14.2
COc1ccc(NC(=O)CN2CCCCC2)cc1.O=C(O)C(=O)O	3.8
C=CCOc1cccc(/C=C2\C(=O)N(Cc3ccc(C)cc3)C(C)=C2C(=O)OC)c1	10.5
Cc1cc(C(=O)N2CCN(C/C=C/c3ccccc3)CC2)no1	-14.5
Cl.N=c1sccn1CC(=O)NCc1ccc(Cl)cc1Cl	-9.89
O=C(Nc1ccccc1C(=O)Nc1ccncc1)c1ccc([N+](=O)[O-])cc1	-4.77
COC(=O)c1cc(OC)c(OC)cc1NC(=O)c1cccc(C)c1	-1.82
CC(C)(C)NC(=O)CC(c1ccccc1)c1ccccc1O (stereo not shown)	-3.84
Cn1ncc(Br)c1N1C(=O)CCC1=O	4.51
Cn1c(CNC(=O)c2ccco2)nnc1SCC(=O)c1ccc(Br)cc1	-33.9
Cc1ccc2c([N+](=O)[O-])cccc2n1	-0.127
Br.COc1ccc(N=C/C=C2\C=C(c3ccccc3)OC(C)(C)O2)cc1	-23.7
C[C@H]1CCC[C@@]2(O[C@@H](CCO)C[C@@H](O)[C@@H]2O)O1	4.31
CCCOc1ccc(N2C(=O)CC(N3CCN(c4ccccc4OC)CC3)C2=O)cc1 (stereo not shown)	-26.3
COc1cc(CCC(=O)N2CCN(c3ccc([N+](=O)[O-])cc3)CC2)cc(OC)c1OC	-78.4
Cn1c(=O)c2c(ncn2CC(=O)N2CCN(S(=O)(=O)c3ccc(Cl)cc3)CC2)n(C)c1=O	-2.15
Cc1cc(NS(=O)(=O)c2ccc(NC(=O)C(C)Oc3ccc4c(C)cc(=O)oc4c3)cc2)no1 (stereo not shown)	-2.43
O=c1[nH]n(-c2cccc(Cl)c2)c2ncccc12	6.21
O=C(C1CCCN(S(=O)(=O)c2cccc3nsnc23)C1)N1CCc2ccccc2C1 (stereo not shown)	-38.9
Cc1ccc(NC(=O)NC2CCCCCCC2)cc1C	11.3
O=C(CSc1n[nH]c(-c2ccco2)n1)N1c2ccccc2Sc2ccccc21	11.2
CCc1ccccc1NC(=O)C(Cc1cccc(OC)c1OC)c1nn[nH]n1 (stereo not shown)	7.41

SMILES	hERG current change (%, negative = inhibition) at 10uM [%]
COc1cc(C(=O)Nc2cc(C(F)(F)F)ccc2N2CCOCC2)ccc1OCC(=O)N1CCOCC1	-17.6
COC(=O)c1sccc1NC(=S)N1CCCCC1	5.34
COCC(=O)N1CCC(Oc2ccc(C(=O)NCc3csc(C(C)C)n3)cc2)CC1	43.1
O=C(CN1C(=O)NC2(CCCC2)C1=O)N1CCN(S(=O)(=O)c2ccc(Cl)c(C(F)(F)F)c2)CC1	-11.8
COc1ccc(C#Cc2c(C=O)n(C)c3ccccc23)cc1	8.7
COCC1CCN(C(=O)c2ccc(OC3CCN(Cc4ccccn4)CC3)cc2)C1 (stereo not shown)	-10.6
O=C(N/N=C/c1ccc2c(c1)OCO2)/C(=C/c1ccc2c(c1)OCO2)NC(=O)c1ccccc1	-20.7
CCC(C)(C)c1nnc(NC(=O)c2cccc([N+](=O)[O-])c2)s1	-4.76
COc1ccc(N(CC(=O)NC2CCCC2)C(=O)CS(=O)CC(=O)Nc2ccc3c(c2)OCO3)cc1 (stereo not shown)	-2.1
O=C1CC(N2CCc3ccccc32)C(=O)N1c1ccccc1 (stereo not shown)	10.7
CCc1ccccc1NC(=O)N1CCc2ccccc2C1	8.21
CC(CN(C)Cc1ccccc1)OC(=O)c1ccccc1F.Cl (stereo not shown)	-2.3
COc1ccc(-c2nsc(SCC(=O)Nc3ccc4c(c3)OCO4)n2)cc1	20
S=C(NCCSCc1ccc(Cl)cc1Cl)Nc1ccccc1	4.75
COc1ccccc1-c1ccc(=O)n(CC(=O)NCc2cccs2)n1	-0.87
CCN(CC)S(=O)(=O)c1ccc(C(=O)OCn2nnc3ccccc3c2=O)cc1	-6.69
CCOC(=O)c1cnc(SC)nc1N	-4.94
CC(C)n1c(CCC(=O)O)ccc1-c1ccccc1	10.1
COc1cccc(/C(O)=C2/C(=O)C(=O)N(CCN(C)C)C2c2ccc(Br)cc2)c1 (stereo not shown)	11.3
O=C1COc2ccc(C(=O)CSc3nnc(Cc4cccs4)n3-c3ccccc3)cc2N1	-38.3
Cc1nn(C)cc1CN1CCCC(C(=O)c2ccc(-c3ccccc3)cc2)C1 (stereo not shown)	-45.4
Cc1cccc(NC(=O)OC2CN3CCC2CC3)c1 (stereo not shown)	-9.77

SMILES	hERG current change (%, negative = inhibition) at 10uM [%]
CCOc1nc(NC(=O)NS(=O)(=O)c2cccc(Cl)c2)nc(-c2ccccc2)n1	-3.13
COC(=O)CSc1nc(C)c(C(C)=O)cc1C#N	-8.09
O=C(CCCl)Nc1nnc(SCC(=O)NC2CCCC2)s1	3.7
COc1cc(OC)cc(-c2nc3ccccc3c(=O)n2OC(=O)c2ccccc2C)c1	10.6
Brc1cc2c(cc1CSc1ncccn1)OCO2	20.1
Nc1ccc(Oc2ccc(Br)cc2)cc1	-4.61
CCc1nn(CCCC(=O)NCc2ccc(C)cc2)c(=O)c2cc3occc3n12	-8.1
O=C1c2oc3ccccc3c(=O)c2C(c2cccc(Br)c2)N1Cc1ccco1 (stereo not shown)	-8.64
Cc1ccc(C)c(OCC(=O)Nc2ccc(S(=O)(=O)Nc3ccccn3)cc2)c1	10.8
COc1ccc(S(=O)(=O)NC(C)C(=O)N2CCCC2)cc1Cl (stereo not shown)	5.12
CC(NC(c1ccccc1)c1ccccc1)C(=O)N1CCCc2ccccc21 (stereo not shown)	-0.438
O=C(CN1CCN(c2cccc(Cl)n2)CC1)N1CC(O)CO1 (stereo not shown)	19.6
Cc1ccccc1N1C(=O)C(Cc2ccc(F)cc2)S/C1=C(\C#N)C(N)=O (stereo not shown)	0.855
Fc1cccc(Cl)c1Cc1noc(/C=C/c2ccccc2)n1	12.6
CCC(CC)N1CCN(Cc2nc3ccccc3c(=O)n2-c2ccc(F)cc2)CC1	-45.9
O=C(N1CCCCC1)C12CC3CC(CC(C3)C1)C2	5.82
Cc1cn(C2CCC(CO)O2)c(=O)[nH]c1=O (stereo not shown)	18.9
CC1CCCCC1NC(=O)c1ccc2c(c1)[nH]c(=O)n2C1CCCC1 (stereo not shown)	-21.6
CCc1nc2ccc(C(=O)N3CCN(c4ccccc4)CC3)cc2nc1CC	-5.04
CCc1ccc(NC(=S)N(Cc2ccc(Cl)cc2)Cc2ccc(C(=O)O)cc2)cc1	12.7
COc1cc2c(cc1OC)C(C)N(C(=O)Nc1cc(C)cc(C)c1)CC2 (stereo not shown)	4.95
Cc1nc(-c2ccc(S(=O)(=O)N3CCN(c4cccc(C)c4C)CC3)cc2)co1	-3.54
